Results: PubChem BioAssay AID360 (National Center for Advancing Translational Sciences (NCATS), 2006)
Hit rate of the full screen: of about 48,000 compounds, about 550 (1.1%) were called active. Not shown: some 4% with an inconclusive outcome. No stated cut-off is given here; in the data, active means potency below about 15 µM; inconclusive means mostly about 16 µM to 33 µM; inactive means weaker than that. Some of the results follow.

The compounds below were run against Lysosomal acid glucosylceramidase (Homo sapiens) (UniProt P04062) (assay: Glucocerebrosidase). Conditions: purified enzyme, resorufin glucoside fluorescence (screen aimed at inhibitors), 20 min.
Summary of the method: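 Wild-type enzyme at 0.2 nM final in 50mM citric acid/KH2PO4, 10mM sodium taurocholate, 0.01% tween-20, pH 5.9, with resorufin beta-D-glucopyranoside at 30 uM final. Compounds titrated, 20 min at RT, red fluorescence read; AC50 from titration.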
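Further: the screen sought inhibitors.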
Potency means the concentration at half of the fitted maximal effect.

Chain of UniProt P04062 (P04062 whole entry, looked up): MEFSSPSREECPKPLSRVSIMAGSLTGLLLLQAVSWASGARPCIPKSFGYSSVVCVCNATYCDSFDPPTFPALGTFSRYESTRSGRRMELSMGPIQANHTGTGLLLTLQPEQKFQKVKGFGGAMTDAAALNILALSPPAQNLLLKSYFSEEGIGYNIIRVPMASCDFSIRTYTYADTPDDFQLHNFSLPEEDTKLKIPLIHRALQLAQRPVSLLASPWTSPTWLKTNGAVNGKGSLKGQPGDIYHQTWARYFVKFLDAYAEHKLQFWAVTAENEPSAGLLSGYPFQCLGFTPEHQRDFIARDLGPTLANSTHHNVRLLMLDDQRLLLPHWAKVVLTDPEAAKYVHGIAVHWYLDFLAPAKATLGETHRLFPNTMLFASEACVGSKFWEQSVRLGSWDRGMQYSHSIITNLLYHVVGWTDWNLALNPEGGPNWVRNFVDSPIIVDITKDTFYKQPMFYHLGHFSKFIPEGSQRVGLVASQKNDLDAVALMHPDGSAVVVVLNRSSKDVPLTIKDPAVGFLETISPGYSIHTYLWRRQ

Potency, active:
CCOC(=O)c1ccc(Nc2cc(C)nc(N3CCOCC3)n2)cc1 8.47 µM

Potency, inactive:
COc1ccc(Cn2nnnc2CN(Cc2cc3cccc(C)c3[nH]c2=O)C2CCCC2)cc1 > 76.9 µM
O=C(NC(Cc1ccccc1)c1nc2ccccc2[nH]1)C1CC(=O)N(c2ccc3c(c2)OCCO3)C1 (configuration not stated) > 76.9 µM
CC12CCC(C(=O)NCC3CCCO3)(OC1=O)C2(C)C (configuration not stated) > 76.9 µM
Cn1c(=O)[nH]c(=O)c2c1nc(N1CCOCC1)n2CCN1CCOCC1 > 76.9 µM
CCOC(=O)Nc1ccc2c(c1)N(C(=O)CN(CC)CC)c1ccccc1C=C2 > 76.9 µM
COc1ccc(N2CC(C(=O)NCCC3=CCCCC3)CC2=O)cc1 (configuration not stated) > 76.9 µM
O=C(Nc1nnc(C2CC2)s1)c1cc(-c2ccccc2)nn1-c1ccccc1 > 76.9 µM
CCOC(=O)N1CCN(C(=O)c2cn(CC(C)C)c(=O)c3c2c2ccccc2n3C)CC1 > 76.9 µM
O=C(NC1CCCC1)c1ccc(S(=O)(=O)N2CCCC2)cc1 > 76.9 µM
CCOC(=O)C(CC)n1cnc2c(nnn2-c2ccc(C)cc2)c1=O (configuration not stated) > 76.9 µM
Nc1nc(N)nc(-c2ccccn2)n1 > 76.9 µM
Cc1ccc(-c2cc(-c3ccc(Cl)cc3)c(C#N)c(N)n2)o1 > 76.9 µM
CC(C)CN(CC(C)C)S(=O)(=O)N1CCC(C(=O)NCc2ccccn2)CC1 > 76.9 µM
CS(=O)(=O)N1CCN(c2ccccc2F)CC1 > 76.9 µM
CCn1cc(C(=O)NCCCN2CC(C)CC(C)C2)c2cc(OC)c(OC)cc2c1=O (configuration not stated) > 76.9 µM
CCOc1ccc(N(Cc2cc3ccc(C)cc3[nH]c2=O)C(=O)COC)cc1 > 76.9 µM
CC(=O)c1cccc(NC(=O)c2oc(C)nc2C)c1 > 76.9 µM
COCCn1c(Cc2ccccc2)nnc1SCC(=O)NC(C)(C)C > 76.9 µM
CCOC(=O)NC(Nc1nnc(C)s1)(C(=O)OCC)C(F)(F)F (configuration not stated) > 76.9 µM
COCC(C)n1c(SCc2ccc(C(=O)OC)o2)nc2ccccc2c1=O (configuration not stated) > 76.9 µM
O=C(CCN1CCN(c2ccccc2)CC1)Nc1ccccc1F > 76.9 µM
CCCCCNC(=O)c1cc(S(=O)(=O)N2CCCCC2)ccc1F > 76.9 µM
CCc1nc(N)c(C#N)c(-c2ccc(O)c(OC)c2)c1C > 76.9 µM
COc1ccccc1NC(=O)COc1ccc(CO)cc1Cl > 76.9 µM
CC(=O)N1c2ccccc2C(C)CC12CCCCC2 (configuration not stated) > 76.9 µM
CC(=O)N(Cc1cc(=O)[nH]c2ccccc12)c1cccc(C)c1 > 76.9 µM
CC(C)C(C(=O)N1CCOCC1)N1C(=O)c2ccccc2C1=O (configuration not stated) > 76.9 µM
COc1ccccc1N1CCN(C(=O)c2ccc(Br)s2)CC1 > 76.9 µM
CCOC(=O)c1ccc(NC(=O)NC2CCN(CC(=O)NCc3ccc4c(c3)OCO4)CC2)cc1 > 76.9 µM
O=C(CSc1nnc(C2CCCCC2)n1-c1ccccc1)NCc1ccco1 > 76.9 µM
O=S(=O)(Cc1ccccc1Cl)N1CCCCC1 > 76.9 µM
Cc1ccc(NS(=O)(=O)c2ccc(NC(=O)C3CCCO3)cc2)cc1 (configuration not stated) > 76.9 µM
Cc1cccn2c(=O)c3cc(C(=O)N4CCN(C(=O)c5ccco5)CC4)n(C)c3nc12 > 76.9 µM
CCOC(=O)c1c(N)sc(C(=O)Nc2ccc3c(c2)OCO3)c1C > 76.9 µM
O=C(c1cccnc1)N1CCN(C(=O)c2cccs2)CC1 > 76.9 µM
Cc1cccc2cc(CN(Cc3ccccc3)C(=O)N(C)C)c(=O)[nH]c12 > 76.9 µM
CC(C)N(CCO)C(=O)C(c1ccccc1)c1ccccc1 > 76.9 µM
c1ccc(CNn2nnnc2-c2ccccc2)cc1 > 76.9 µM
CCN(CC)S(=O)(=O)c1ccccc1/C=N\O > 76.9 µM
CCN(CC)C(=O)c1cncc(C(=O)N(CC)CC)c1-c1ccccc1 > 76.9 µM
Cc1cccc(C)c1NC(=O)CCCSc1nnnn1C > 76.9 µM
O=C(OCC(=O)N1CCN(C(=O)COC(=O)c2ccncc2)CC1)c1ccncc1 > 76.9 µM
CCOc1ccc(OCC)c(NC(=O)CN2CCN(C(=O)c3ccco3)CC2)c1 > 76.9 µM
Cc1cc2oc(=O)c3c(c2cc1OC(=O)c1ccco1)CCCC3 > 76.9 µM
CCOC(=O)c1c(N)sc(C(=O)N2CCOCC2)c1C > 76.9 µM
Cc1noc(C)c1C(=O)OCC(=O)/C=C1\N(C)c2ccccc2C1(C)C > 76.9 µM
CC1(C)CC(=O)C2=C(C1)Nc1ncnn1C2c1ccccn1 (configuration not stated) > 76.9 µM
O=C(CSCCO)Nc1cc(C(F)(F)F)ccc1Cl > 76.9 µM
CCOC(=O)CN1C(=O)SC(CC(=O)Nc2nccs2)C1=O (configuration not stated) > 76.9 µM
C=CCNS(=O)(=O)c1ccc(OC)c(C)c1 > 76.9 µM
Cc1ccc(-c2cc(C(=O)NCc3ccc4c(c3)OCO4)no2)cc1 > 76.9 µM
CCOC(=O)c1sc(NC(=O)CSc2ncccn2)c(C#N)c1C > 76.9 µM
Clc1cc2c(c(Cn3cnc4ccccc43)c1)OCOC2 > 76.9 µM
CCN(CC)S(=O)(=O)c1ccc2c(c1)c(=O)c(C(=O)N1CCN(c3ccccc3)CC1)cn2C > 76.9 µM
CC(C)(C)C(=O)NC1CCN(S(=O)(=O)c2ccccc2F)CC1 > 76.9 µM
CNS(=O)(=O)c1cccc(C(=O)NCC(c2cccs2)N(C)C)c1 (configuration not stated) > 76.9 µM
O=C(NC1CCCC1)C(c1ccccc1F)N(C(=O)c1ccco1)C1CCCC1 (configuration not stated) > 76.9 µM
O=C(Nc1ccc(-n2cnnn2)cc1)C1CCCN1C(=O)NC1CCCCC1 (configuration not stated) > 76.9 µM
COC(=O)CSc1nnc(-c2ccccn2)n1Cc1ccco1 > 76.9 µM
Cc1occc1-c1nnc(SCc2cc(=O)n3cc(Br)ccc3n2)n1C > 76.9 µM
CCC(c1nnnn1CCc1ccccc1)N(Cc1ccco1)Cc1cc2cc(C)cc(C)c2[nH]c1=O (configuration not stated) > 76.9 µM
CC(=O)Nc1ccc(N/C=C/C(=O)c2ccc(C)o2)cc1 > 76.9 µM
CCc1nc(SCC(=O)N2CCCC2)c2ccccc2n1 > 76.9 µM
Cc1cc(C)cc(-n2nnc(C(=O)NCc3ccco3)c2N)c1 > 76.9 µM
Cc1c(NC(=O)c2cc(-c3ccccc3)on2)c(=O)n(-c2ccccc2)n1C > 76.9 µM
CS(=O)(=O)N(CC(=O)N1CCOCC1)Cc1ccc(Cl)cc1 > 76.9 µM
COc1ccc(N2CCN(C(=O)c3cccc(Cn4cc(Cl)cn4)c3)CC2)cc1 > 76.9 µM
O=C1C2C(C(=O)N1Cc1ccco1)C1C=CC2C12CC2 (configuration not stated) > 76.9 µM
Cc1ccc(C)n1-n1c(C)nc2sc3c(c2c1=O)CCCCC3 > 76.9 µM
CCOC(=O)Cn1cc(C(=O)C2CC2)c2ccccc21 > 76.9 µM
CCN(CC)c1cccc(OCC(=O)N(C)CCC#N)c1 > 76.9 µM
CC(Sc1cccc2cccc(C(=O)O)c12)C(=O)O (configuration not stated) > 76.9 µM
Cc1nnc(NCc2ccncc2)c2ccccc12 > 76.9 µM
Cc1ccc(OCCN2CCN(C(=O)CCC(=O)Nc3nnc(C(C)C)s3)CC2)cc1 > 76.9 µM
CCc1nc2ccccc2n1CCC(C)C > 76.9 µM
Nc1nc(SCc2ccc3c(c2)OCCO3)n[nH]1 > 76.9 µM
CCCn1cc(S(=O)(=O)CC(=O)N2CCc3ccccc32)c2ccccc21 > 76.9 µM
CCOc1ccccc1NC(=O)C1CCN(c2ccc(S(=O)(=O)N3CCCC3)cc2)CC1 > 76.9 µM
CC1(C)N=C(c2cccc(F)c2)C(=O)N1 > 76.9 µM
Nc1nonc1-c1nc2ccccc2n1Cc1ccccc1 > 76.9 µM
CC(=O)Nc1nonc1-n1nnc(C(=O)NCc2ccccc2)c1C > 76.9 µM
Cc1cc(NCCCn2ccnc2)n2c(nc3ccccc32)c1C#N > 76.9 µM
COc1ccc(CCNC(=O)CCn2c(SCC#N)nc3ccccc3c2=O)cc1OC > 76.9 µM
COc1ccccc1C1N(c2ccc(Cl)cc2)C(=O)C2CCCN21 (configuration not stated) > 76.9 µM
OCc1nc2ccccc2n1CC(O)Cn1ccc2ccccc21 (configuration not stated) > 76.9 µM
COc1ccc(NC(=O)C2OCCc3ccccc32)c(OC)c1 (configuration not stated) > 76.9 µM
O=C1CC(c2ccc3c(c2)OCO3)c2cc3c(cc2N1)OCO3 (configuration not stated) > 76.9 µM
O=C(O)CCN1CCc2ccccc21 > 76.9 µM
CN(CC(=O)N1CCc2ccccc21)S(=O)(=O)c1ccc(Br)s1
COc1ccc(CCNC(=O)C2CCN(S(=O)(=O)N3CCOCC3)CC2)cc1OC > 76.9 µM
COc1ccc(-c2nnc(SCCOc3cccc(C)c3)n2N)cc1 > 76.9 µM
